This is an account of results in the supplement of paper PMC6089552.

The experiment has as its system A673/TR/shEF. The experiment in a line: cell viability (LOESS-normalised, relative to median of negative controls) (log2 ratio); higher = more viable cells (less compound effect), active = hit call of the paper (over 3 MAD below the median). The conditions noted are these: treatment time: 72 h. An outline of the steps:
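For three days, A673/TR/shEF Ewing sarcoma cells in 384-well plates (1,500 per well) were treated with library compounds at two or more concentrations or with DMSO controls, after doxycycline had been added or withheld 24 h beforehand to induce EWS-FLI1 shRNA knockdown. Viability was read by CellTiter-Glo luminescence on an Envision reader. The data were LOESS-corrected per plate, divided by the median of negative controls and log2-transformed.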

The mark [1] stands for this setting: 0.25 µM, library screen: screen1, EWS-FLI1 expression: high (no doxycycline).
The mark [2] stands for this setting: 0.25 µM, library screen: screen1, EWS-FLI1 expression: low (doxycycline-induced shRNA knockdown).
Setting [3] is: 0.25 µM, library screen: screen2, EWS-FLI1 expression: high (no doxycycline).
[4] abbreviates: 0.25 µM, library screen: screen2, EWS-FLI1 expression: low (doxycycline-induced shRNA knockdown).
Where [5] appears, read: 2.5 µM, library screen: screen1, EWS-FLI1 expression: high (no doxycycline).
[6] abbreviates: 2.5 µM, library screen: screen1, EWS-FLI1 expression: low (doxycycline-induced shRNA knockdown).
Where [7] appears, read: 2.5 µM, library screen: screen2, EWS-FLI1 expression: high (no doxycycline).
The mark [8] stands for this setting: 2.5 µM, library screen: screen2, EWS-FLI1 expression: low (doxycycline-induced shRNA knockdown).
[9] abbreviates: 0.103 µM, library screen: screen3, EWS-FLI1 expression: high (no doxycycline).
The mark [10] stands for this setting: 0.103 µM, library screen: screen3, EWS-FLI1 expression: low (doxycycline-induced shRNA knockdown).
[11] abbreviates: 0.308 µM, library screen: screen3, EWS-FLI1 expression: high (no doxycycline).
The mark [12] stands for this setting: 0.308 µM, library screen: screen3, EWS-FLI1 expression: low (doxycycline-induced shRNA knockdown).
[13] abbreviates: 0.926 µM, library screen: screen3, EWS-FLI1 expression: high (no doxycycline).
The mark [14] stands for this setting: 0.926 µM, library screen: screen3, EWS-FLI1 expression: low (doxycycline-induced shRNA knockdown).
Setting [15] is: 2.8 µM, library screen: screen3, EWS-FLI1 expression: high (no doxycycline).
[16] abbreviates: 2.8 µM, library screen: screen3, EWS-FLI1 expression: low (doxycycline-induced shRNA knockdown).
The mark [17] stands for this setting: 8.3 µM, library screen: screen3, EWS-FLI1 expression: high (no doxycycline).
[18] abbreviates: 8.3 µM, library screen: screen3, EWS-FLI1 expression: low (doxycycline-induced shRNA knockdown).
The mark [19] stands for this setting: 25 µM, library screen: screen3, EWS-FLI1 expression: high (no doxycycline).
The mark [20] stands for this setting: 25 µM, library screen: screen3, EWS-FLI1 expression: low (doxycycline-induced shRNA knockdown).

Out of some 3,200 compounds screened, about 300 (9.4%) showed activity. This is a selection; strong and weak results do not stand in their true shares.

With `Oc1cc(O)cc(/C=C/c2ccc(O)c(O)c2)c1`, the “cell viability (log2)” value is, setting by setting: (0.025 µM, library screen: screen1, EWS-FLI1 expression: high (no doxycycline)) inactive: 0.0929; (0.025 µM, library screen: screen1, EWS-FLI1 expression: low (doxycycline-induced shRNA knockdown)) inactive: 0.00184; under setting [1], inactive: 0.117; under setting [2], inactive: 0.0696; under setting [3], inactive: -0.0238; under setting [4], inactive: 0.0864. Further, the “cell viability (log2)” value under setting [5] is inactive: 0.0516; the “cell viability (log2)” value under setting [6] was inactive: 0.151; the “cell viability (log2)” value under setting [7] is inactive: 0.187; the “cell viability (log2)” value under setting [8] was inactive: 0.0106; the “cell viability (log2)” value (25 µM, library screen: screen1, EWS-FLI1 expression: high (no doxycycline)) was active: -0.42; the “cell viability (log2)” value (25 µM, library screen: screen1, EWS-FLI1 expression: low (doxycycline-induced shRNA knockdown)) was inactive: 0.162.
With `O=c1oc2ccccc2cc1O`, the “cell viability (log2)” value by setting is: under setting [1], inactive: 0.0755; under setting [2], inactive: 0.0093; under setting [5], inactive: 0.138; under setting [6], inactive: 0.0389.
With `C=CCNc1nc2ccccn2c(=O)c1/C=C1\SC(=S)N(CCc2ccccc2)C1=O`, the “cell viability (log2)” value runs as follows: under setting [1], inactive: 0.071; under setting [2], inactive: 0.0307; under setting [5], inactive: 0.121; under setting [6], inactive: 0.134.
On to `C=C1CCC(=O)C(C)CCC2C1CC2(C)C` (stereo not drawn), for which the “cell viability (log2)” value reads like this: under setting [1], inactive: 0.0584; under setting [2], inactive: -0.00925; under setting [5], inactive: 0.119; under setting [6], inactive: -0.105.
For `CC1CCC2(OC1)OC1CC3C4CCC5C[C@@H](O)CCC5(C)C4=CCC3(C)C1[C@@H]2C` (stereo partly drawn) the same measures were inactive: 0.0912, inactive: 0.0387, inactive: 0.0505 and inactive: 0.0779.
For the compound `CC(C)CCCCCOC(=O)COc1ccc(Cl)cc1Cl`, the “cell viability (log2)” value is inactive: 0.0385 under setting [1], inactive: 0.102 under setting [2], inactive: 0.111 under setting [5] and inactive: -0.0211 under setting [6].
For `COc1ccc(C[C@@H](N)C(=O)N[C@H]2[C@@H](O)[C@H](n3cnc4c(N(C)C)ncnc43)O[C@@H]2CO)cc1`, the “cell viability (log2)” value by setting is: under setting [5], active: -1.82; under setting [6], active: -2.
As for `COc1ccc2c3c1O[C@H]1C[C@@H](O)C=C[C@@]31CCN(C)C2`, the “cell viability (log2)” value was inactive: 0.0942 under setting [1], inactive: -0.0176 under setting [2], inactive: 0.152 under setting [5] and inactive: 0.105 under setting [6].
Regarding `CCCC(=O)O[C@]1(C(=O)CO)CC[C@H]2[C@@H]3CCC4=CC(=O)CC[C@]4(C)[C@H]3[C@@H](O)C[C@@]21C`, the “cell viability (log2)” value reads like this: under setting [1], inactive: 0.135; under setting [2], inactive: 0.151; under setting [5], inactive: 0.136; under setting [6], inactive: 0.0219.
Turning to `CC1(C)S[C@@H]2[C@H](NC(=O)COc3ccccc3)C(=O)N2[C@H]1C(=O)O`, the “cell viability (log2)” value is inactive: 0.149 under setting [1], inactive: 0.119 under setting [2], inactive: 0.17 under setting [5] and inactive: 0.197 under setting [6].
With `Cn1cncc1[C@@](N)(c1ccc(Cl)cc1)c1ccc2c(c1)c(-c1cccc(Cl)c1)cc(=O)n2C`, the “cell viability (log2)” value under setting [9] is inactive: -0.139; the “cell viability (log2)” value under setting [10] is inactive: -0.0373; the “cell viability (log2)” value under setting [11] was active: -0.29; the “cell viability (log2)” value under setting [12] is inactive: -0.0603; the “cell viability (log2)” value under setting [13] is active: -0.324; the “cell viability (log2)” value under setting [14] was inactive: -0.0604. Also, the “cell viability (log2)” value under setting [15] was active: -0.403; the “cell viability (log2)” value under setting [16] was active: -0.128; the “cell viability (log2)” value under setting [17] was active: -0.472; the “cell viability (log2)” value under setting [18] was active: -0.135; the “cell viability (log2)” value under setting [19] is active: -0.511; the “cell viability (log2)” value under setting [20] is active: -0.303.
Regarding `Cc1nnc(SCC2=C(C(=O)O)N3C(=O)[C@@H](NC(=O)Cn4cnnn4)[C@H]3SC2)s1`, the “cell viability (log2)” value is, setting by setting: under setting [1], inactive: 0.136; under setting [2], inactive: 0.127; under setting [3], inactive: 0.117; under setting [4], inactive: 0.106; under setting [5], inactive: 0.19; under setting [6], inactive: 0.189. Moreover, the “cell viability (log2)” value was inactive: 0.0924 under setting [7] and inactive: 0.0187 under setting [8].
Consider `CC(=O)OCC1(O)CC23CCC4c5ccoc5CCC4(C)C2CCC1C3` (stereo not drawn), for which the “cell viability (log2)” value under setting [1] is inactive: 0.0224, the “cell viability (log2)” value under setting [2] is inactive: 0.0746, the “cell viability (log2)” value under setting [5] is inactive: 0.0154 and the “cell viability (log2)” value under setting [6] was inactive: 0.0823.
Regarding `CN1C2CCC1CC(NC(=O)c1nn(C)c3ccccc13)C2` (stereo not drawn), the “cell viability (log2)” value under setting [3] is inactive: 0.132, the “cell viability (log2)” value under setting [4] was inactive: 0.139, the “cell viability (log2)” value under setting [7] is inactive: 0.11 and the “cell viability (log2)” value under setting [8] is inactive: 0.144.
As to `O=c1[nH]c(=O)n([C@H]2C[C@H](O)[C@@H](CO)O2)cc1C(F)(F)F`, the “cell viability (log2)” value runs as follows: under setting [9], inactive: 0.105; under setting [10], inactive: 0.105; under setting [1], inactive: -0.0346; under setting [2], inactive: 0.0988; under setting [11], inactive: 0.134; under setting [12], inactive: 0.147. Also, the “cell viability (log2)” value runs as follows: under setting [13], inactive: 0.108; under setting [14], inactive: 0.0588; under setting [5], inactive: 0.0509; under setting [6], inactive: 0.029; under setting [15], inactive: 0.0746; under setting [16], inactive: 0.0921. Besides, the “cell viability (log2)” value reads like this: under setting [17], inactive: 0.0584; under setting [18], inactive: 0.048; under setting [19], active: -0.362; under setting [20], inactive: 0.124.
For the compound `CN(C)c1nc(N)c(C(=O)N=C(N)N)nc1Cl`, the “cell viability (log2)” value was inactive: 0.143 under setting [1]; inactive: 0.142 under setting [2]; inactive: 0.176 under setting [3]; inactive: 0.0717 under setting [4]; inactive: 0.211 under setting [5]; inactive: 0.0791 under setting [6]. In addition, the “cell viability (log2)” value under setting [7] was inactive: 0.0397 and the “cell viability (log2)” value under setting [8] was inactive: 0.108.
As for `C=C(C)C1CC=C(C(=O)O)CC1` (stereo not drawn), the “cell viability (log2)” value under setting [1] was inactive: 0.112; the “cell viability (log2)” value under setting [2] was inactive: 0.0449; the “cell viability (log2)” value under setting [3] is inactive: 0.18; the “cell viability (log2)” value under setting [4] is inactive: 0.164; the “cell viability (log2)” value under setting [5] was inactive: 0.0814; the “cell viability (log2)” value under setting [6] was inactive: 0.1. The “cell viability (log2)” value under setting [7] was inactive: 0.193 and the “cell viability (log2)” value under setting [8] is inactive: 0.204.
Regarding `c1cc(CN2CCCNCCNCCCNCC2)ccc1CN1CCCNCCNCCCNCC1`, the “cell viability (log2)” value under setting [9] is inactive: 0.00595; the “cell viability (log2)” value under setting [10] is inactive: 0.0496; the “cell viability (log2)” value under setting [11] is inactive: 0.0705; the “cell viability (log2)” value under setting [12] was inactive: 0.00482; the “cell viability (log2)” value under setting [13] is inactive: 0.086; the “cell viability (log2)” value under setting [14] was inactive: 0.0433. Further, the “cell viability (log2)” value runs as follows: under setting [15], inactive: 0.0246; under setting [16], inactive: 0.0244; under setting [17], inactive: 0.0572; under setting [18], inactive: 0.0352; under setting [19], inactive: 0.0828; under setting [20], inactive: 0.0617.
